Structures can show the parent of a compound that is named as a salt. In all, about 2,800 compounds were measured (“cell viability relative to vehicle”: median about 1.1, lowest 2% from about 0.19 on). The list shows a part of the results.
Test system: NCI-H2228 parental
Assay: cell viability relative to vehicle (fraction of vehicle); NCI-H2228 is an ALK-positive lung cancer line and DTP means drug-tolerant persister; higher = less growth inhibition
Conditions: 100 nM; treatment time 6 days
Procedure, shortened: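 NCI-H2228 parental cells and drug-tolerant persister cells were plated in 384-well plates; the persisters had been generated with 1000 nM of a targeted drug over 13 days. One day later, the 3114-agent TargetMol anti-cancer compound library was added at 100 nM, with DMSO serving as vehicle. ATP was measured 6 days after that using the CellTiter-Glo 3D Cell Viability Assay. Values are cell viability expressed relative to vehicle-treated cells.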

Row | SMILES | cell viability
1 | O=c1ccn([C@@H]2O[C@H](CO)[C@@H](O)[C@H]2O)c(=O)[nH]1 [Uridine] | 1.14
2 | COc1cc(/C=C2/SC(=S)NC2=O)ccc1OCC(=O)O | 1.1
3 | CC(C)(C)c1ccc(C(=O)CCCN2CCC(OC(c3ccccc3)c3ccccc3)CC2)cc1 [Ebastine] | 0.967
4 | CCn1nc(C2CCN(C(=O)CCO)CC2)nc1-c1cnc(N)c(-c2nnc(C(C)(C)C)o2)n1 | 1.04
5 | O=C1CCC[C@@H]2[C@H]3CCC[N+]4([O-])CCC[C@@H](CN12)[C@@H]34 (stereo partly specified) [Oxymatrine] | 1
6 | CS(=O)(=O)c1ccc(-c2cnc(NCc3ccco3)n3cnnc23)cc1 | 1.02
7 | Cn1ccnc1 [Saccharin 1-methylimidazole (SMI)] | 1.09
8 | COc1ccc(S(=O)(=O)Nc2ccccc2C=Cc2ccncc2)cc1 | 0.238
9 | Cc1c(C)c2c(c(C)c1O)CCC(C)(C(=O)O)O2 (stereo unspecified) [Trolox] | 1.18
10 | C[C@@H](C(=O)Nc1ccc(Cl)cc1)[C@H]1CC[C@@H](c2ccnc3ccc(F)cc32)CC1 [Linrodostat] | 0.956
11 | COc1cc(C2Oc3cc([C@H]4Oc5cc(O)cc(O)c5C(=O)[C@@H]4O)ccc3OC2CO)ccc1O (stereo partly specified) [Silibinin] | 1.14
12 | O=c1[nH]c2cc(C(F)(F)F)ccc2n1-c1cc(C(F)(F)F)ccc1O | 1.13
13 | CN(C)CCn1nnnc1SCC1=C(C(=O)O)N2C(=O)[C@@H](NC(=O)Cc3csc(N)n3)[C@H]2SC1 [Cefotiam hydrochloride] | 1.07
14 | CN1CCN(c2ccc(Nc3ncc4cc(C#N)c(=O)n(C5CCCC5)c4n3)cc2)CC1 | 1.03
15 | O=c1cc(-c2ccccc2)oc2cc(O)c(O)c(O)c12 [Baicalein] | 0.974
16 | CC(=O)N[C@@H](CS)C(=O)O [Acetylcysteine] | 1.11
17 | C[C@]1(c2nc3c(C(N)=O)cccc3[nH]2)CCCN1 [Veliparib] | 0.865
18 | C[C@]1(c2nc3c(C(N)=O)cccc3[nH]2)CCCN1 [Veliparib dihydrochloride] | 1.18
19 | Oc1ccccc1N=Cc1c(O)ccc2ccccc12 | 1.14
20 | O=C(O)Cc1cccc(OCCCN(Cc2cccc(C(F)(F)F)c2Cl)CC(c2ccccc2)c2ccccc2)c1 | 1.1
21 | COc1ccc(C=CC(=O)O)cc1OC [3,4-Dimethoxycinnamic acid] | 1.02
22 | O=C(O)c1ccc2c(c1)nc(Nc1cccc(Cl)c1)c1ccncc12 [Silmitasertib] | 1.02
23 | CCN(CC)CCOc1ccc2c(c1)C(=O)c1cc(OCCN(CC)CC)ccc1-2 [Tilorone dihydrochloride] | 1
24 | O=C(/C=C/c1ccc(O)c(O)c1)c1ccc(O)cc1O [Butein] | 1.08
25 | O=C(CCCCCCC(=O)Nc1ccccc1)NO [Vorinostat] | 1.03
26 | O=C(Cl)C(=O)c1c[nH]c2ccccc12 [Indole-3-Glyoxylyl Chloride] | 1.24

Row | SMILES | cell viability
27 | COC(=O)C1=C(C)NC(C)=C(C(=O)OC2CCCN(Cc3ccccc3)C2)C1c1cccc([N+](=O)[O-])c1 (stereo unspecified) [Benidipine hydrochloride] | 1.14
28 | CCNC(=O)CCC/C=C\C[C@@H]1[C@@H](/C=C/[C@@H](O)CCc2ccccc2)[C@H](O)C[C@@H]1O [Bimatoprost] | 1.23
29 | COc1ccc(S(=O)(=O)Nc2cccnc2Nc2ccc(O)cc2)cc1 | 0.758
30 | Cc1ccc(NC(=O)c2cccc(N(C)C)c2)cc1NC(=O)c1ccc(O)cc1 | 1.03
31 | O=C1NCCc2[nH]c(-c3ccncc3)cc21 | 1.08
32 | CC(C)=CCC[C@](C)(O[C@@H]1O[C@H](CO)[C@@H](O)[C@H](O)[C@H]1O)[C@H]1CC[C@]2(C)[C@@H]1[C@H](O)C[C@@H]1[C@@]3(C)CC[C@H](O)C(C)(C)[C@@H]3[C@@H](O[C@@H]3O[C@H](CO)[C@@H](O)[C@H](O)[C@H]3O)C[C@]12C [Ginsenoside Rg1] | 1.07
33 | Cc1noc(-c2ccc(-c3ccc(CC(=O)O)cc3)cc2)c1NC(=O)O[C@H](C)c1ccccc1 | 1.05
34 | O=c1sn(-c2cccc3ccccc23)c(=O)n1Cc1ccccc1 [Tideglusib] | 0.799
35 | O=c1cc(-c2ccccc2)oc2cc(O)cc(O)c12 [Chrysin] | 1.3
36 | Cc1cc(OCCCS(C)(=O)=O)cc(C)c1-c1cccc(COc2ccc3c(c2)OC[C@H]3CC(=O)O)c1 | 1.06
37 | CCN(CC)C(=S)SSC(=S)N(CC)CC [Disulfiram] | 0.753
38 | O=C1C(=Cc2cccnc2)C(=O)c2ccccc21 | 1.1
39 | C=C[C@@]1(C)CC(=O)[C@]2(O)[C@@]3(C)[C@@H](O)CCC(C)(C)[C@@H]3[C@H](O)[C@H](OC(C)=O)[C@@]2(C)O1 [Forskolin] | 1.12
40 | O=C(O)[C@@H]1CSCN1 [Thioproline] | 1.03
41 | O=C(CCCCCN1C(=O)c2cccc3cccc(c23)C1=O)NO [Scriptaid] | 0.959
42 | Cn1cc(C[C@@H](N)C(=O)O)c2ccccc21 [Indoximod] | 1.11
43 | COc1cc2/c(=N/c3ccc(Br)cc3F)nc[nH]c2cc1OCC1CCN(C)CC1 [Vandetanib] | 1.09
44 | C[C@H](N)[C@H](O)c1cccc(O)c1 [Metaraminol bitartrate] | 0.905
45 | CC1CCC2(OC1)OC1CC3C4CCC5CC(O)CCC5(C)C4CCC3(C)C1C2C (stereo unspecified) [Spirostan-3-ol] | 1.03
46 | Cn1cc(-c2nc(N[C@@H]3CCCC[C@@H]3N)c(F)c3c2C(=O)NC3)cn1 [TAK-659 hydrochloride] | 1.01
47 | CCN(CC)CCOC(=O)C(Cc1cccc2ccccc12)CC1CCCO1 (stereo unspecified) [Nafronyl oxalate] | 0.983
48 | CC(C)NCC(O)COc1ccc(COCCOC(C)C)cc1 (racemic) [(±)-Bisoprolol hemifumarate] | 1.14
49 | CC1(C)S[C@@H]2[C@H](NC(=O)C(C(=O)O)c3ccccc3)C(=O)N2[C@H]1C(=O)O (stereo partly specified) [Carbenicillin disodium] | 1.02
50 | C[C@H](CCC(=O)NCC(=O)O)[C@H]1CC[C@H]2[C@@H]3[C@H](O)C[C@@H]4C[C@H](O)CC[C@]4(C)[C@H]3CC[C@]12C [Glycochenodeoxycholic Acid] | 1.02
51 | COc1cc(O)c2c(=O)c(O[C@@H]3O[C@H](CO)[C@@H](O)[C@H](O)[C@H]3O)c(-c3ccc(O[C@@H]4O[C@H](CO)[C@@H](O)[C@H](O)[C@H]4O)cc3)oc2c1 [Complanatoside] | 1.07

From the supplement of paper PMC10600219
